Numbering of substitutions follows the chain as printed; changes in the protein carry UniProt numbers. Some of the results follow.

First the molecules themselves.
B1: AAGUUGC (DNA:RNA)
RNA: GGGAGACCGGAAUUCAGAUUGUCCAAGUUGCUUAAAUCCCGUCGUAGCCACCA
DNA 1: CAATCTGAATTCCGGTCTCCC
DNA 2: TGGTGGCTACGACGGGATT
B2: CUUUACA (DNA:RNA)
RNA: B1 RNA with A25C, A26U, G27U, U29A, G30C, C31A
DNA 1: CAATCTGAATTCCGGTCTCCC
DNA 2: TGGTGGCTACGACGGGATT
B3: UCGUGUA (DNA:RNA)
RNA: B1 RNA with A25U, A26C, U29G, G30U, C31A
DNA 1: CAATCTGAATTCCGGTCTCCC
DNA 2: TGGTGGCTACGACGGGATT
B4: CAAAUGU (DNA:RNA)
RNA: B1 RNA with A25C, G27A, U28A, C31U
DNA 1: CAATCTGAATTCCGGTCTCCC
DNA 2: TGGTGGCTACGACGGGATT
B5: CCAUAGU (DNA:RNA)
RNA: B1 RNA with A25C, A26C, G27A, U29A, C31U
DNA 1: CAATCTGAATTCCGGTCTCCC
DNA 2: TGGTGGCTACGACGGGATT
B6: GUACCCA (DNA:RNA)
RNA: GGGAGACCGGAAUUCAGAUUGUCCGUACCCAUUAAAUCCCGUCGUAGCCACCA
DNA 1: CAATCTGAATTCCGGTCTCCC
DNA 2: TGGTGGCTACGACGGGATT
B7: AACAGAG (DNA:RNA)
RNA: B1 RNA with G27C, U28A, U29G, G30A, C31G
DNA 1: CAATCTGAATTCCGGTCTCCC
DNA 2: TGGTGGCTACGACGGGATT
B8: UGUGUCC (DNA:RNA)
RNA: B1 RNA with A25U, A26G, G27U, U28G, G30C
DNA 1: CAATCTGAATTCCGGTCTCCC
DNA 2: TGGTGGCTACGACGGGATT
B9: GAAUUCA (DNA:RNA)
RNA: B6 RNA with U26A, C28U, C29U
DNA 1: CAATCTGAATTCCGGTCTCCC
DNA 2: TGGTGGCTACGACGGGATT
B10: AGGAGUG (DNA:RNA)
RNA: B1 RNA with A26G, U28A, U29G, G30U, C31G
DNA 1: CAATCTGAATTCCGGTCTCCC
DNA 2: TGGTGGCTACGACGGGATT
B11: UCAAAGU (DNA:RNA)
RNA: B1 RNA with A25U, A26C, G27A, U28A, U29A, C31U
DNA 1: CAATCTGAATTCCGGTCTCCC
DNA 2: TGGTGGCTACGACGGGATT
B12: GAAAGCA (DNA:RNA)
RNA: B6 RNA with U26A, C28A, C29G
DNA 1: CAATCTGAATTCCGGTCTCCC
DNA 2: TGGTGGCTACGACGGGATT
B13: CAGCGCC (DNA:RNA)
RNA: B1 RNA with A25C, U28C, U29G, G30C
DNA 1: CAATCTGAATTCCGGTCTCCC
DNA 2: TGGTGGCTACGACGGGATT
B14: CUGGAAU (DNA:RNA)
RNA: B1 RNA with A25C, A26U, U28G, U29A, G30A, C31U
DNA 1: CAATCTGAATTCCGGTCTCCC
DNA 2: TGGTGGCTACGACGGGATT
B15: AAUCAUG (DNA:RNA)
RNA: B1 RNA with G27U, U28C, U29A, G30U, C31G
DNA 1: CAATCTGAATTCCGGTCTCCC
DNA 2: TGGTGGCTACGACGGGATT
B16: CUGGGUG (DNA:RNA)
RNA: B1 RNA with A25C, A26U, U28G, U29G, G30U, C31G
DNA 1: CAATCTGAATTCCGGTCTCCC
DNA 2: TGGTGGCTACGACGGGATT
B17: GGCAGCG (DNA:RNA)
RNA: B6 RNA with U26G, A27C, C28A, C29G, A31G
DNA 1: CAATCTGAATTCCGGTCTCCC
DNA 2: TGGTGGCTACGACGGGATT
B18: UCUACGA (DNA:RNA)
RNA: B6 RNA with G25U, U26C, A27U, C28A, C30G
DNA 1: CAATCTGAATTCCGGTCTCCC
DNA 2: TGGTGGCTACGACGGGATT
B19: AAUAAGC (DNA:RNA)
RNA: B1 RNA with G27U, U28A, U29A
DNA 1: CAATCTGAATTCCGGTCTCCC
DNA 2: TGGTGGCTACGACGGGATT
B20: GCCCGCU (DNA:RNA)
RNA: B6 RNA with U26C, A27C, C29G, A31U
DNA 1: CAATCTGAATTCCGGTCTCCC
DNA 2: TGGTGGCTACGACGGGATT
B21: GGCUAUA (DNA:RNA)
RNA: B6 RNA with U26G, A27C, C28U, C29A, C30U
DNA 1: CAATCTGAATTCCGGTCTCCC
DNA 2: TGGTGGCTACGACGGGATT
B22: CUGCGAC (DNA:RNA)
RNA: B1 RNA with A25C, A26U, U28C, U29G, G30A
DNA 1: CAATCTGAATTCCGGTCTCCC
DNA 2: TGGTGGCTACGACGGGATT
B23: GAAGACC (DNA:RNA)
RNA: B6 RNA with U26A, C28G, C29A, A31C
DNA 1: CAATCTGAATTCCGGTCTCCC
DNA 2: TGGTGGCTACGACGGGATT
B24: AGCUUAU (DNA:RNA)
RNA: B1 RNA with A26G, G27C, G30A, C31U
DNA 1: CAATCTGAATTCCGGTCTCCC
DNA 2: TGGTGGCTACGACGGGATT
B25: ACUCUUU (DNA:RNA)
RNA: B1 RNA with A26C, G27U, U28C, G30U, C31U
DNA 1: CAATCTGAATTCCGGTCTCCC
DNA 2: TGGTGGCTACGACGGGATT
B26: ACCUCCU (DNA:RNA)
RNA: B1 RNA with A26C, G27C, U29C, G30C, C31U
DNA 1: CAATCTGAATTCCGGTCTCCC
DNA 2: TGGTGGCTACGACGGGATT
B27: CUAACCC (DNA:RNA)
RNA: B6 RNA with G25C, C28A, A31C
DNA 1: CAATCTGAATTCCGGTCTCCC
DNA 2: TGGTGGCTACGACGGGATT
B28: CGAGUCG (DNA:RNA)
RNA: B6 RNA with G25C, U26G, C28G, C29U, A31G
DNA 1: CAATCTGAATTCCGGTCTCCC
DNA 2: TGGTGGCTACGACGGGATT
B29: GCUAUCC (DNA:RNA)
RNA: B1 RNA with A25G, A26C, G27U, U28A, G30C
DNA 1: CAATCTGAATTCCGGTCTCCC
DNA 2: TGGTGGCTACGACGGGATT
B30: GAUCUUU (DNA:RNA)
RNA: B1 RNA with A25G, G27U, U28C, G30U, C31U
DNA 1: CAATCTGAATTCCGGTCTCCC
DNA 2: TGGTGGCTACGACGGGATT
B31: ACCGACU (DNA:RNA)
RNA: B1 RNA with A26C, G27C, U28G, U29A, G30C, C31U
DNA 1: CAATCTGAATTCCGGTCTCCC
DNA 2: TGGTGGCTACGACGGGATT

The target of this experiment is T1, RBFOX1 RRM (Homo sapiens, UniProt Q9NWB1 109-208).
T1 sequence: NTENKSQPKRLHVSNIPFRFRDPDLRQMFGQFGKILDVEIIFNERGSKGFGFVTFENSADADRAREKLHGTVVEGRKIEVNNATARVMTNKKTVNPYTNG
Put plainly: EMSA; HiTS-Eq, 1 nM pool, 10 min; buffer printed only for the single-RNA assays: 10 mM Tris pH 7.5, 150 mM NaCl, 3.4 mM EDTA, 0.001% NP-40, 30 C. The settings on record: tags: His6 N-terminal (pET28a); label: 5' 32P. The gist of the method: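 Purified RbFox RRM (wild type or mutant) was equilibrated for 10 min in 50 µL with 1 nM of a 5′-radiolabelled pool of RNA with 7 randomized nucleotides, its flanks annealed to DNA oligonucleotides, across increasing protein concentrations. Free RNA was separated by 8% native PAGE, excised, reverse-transcribed, PCR-barcoded and sequenced on an Illumina HiSeq 2500. Relative association constants came from read-count changes of each variant against the control reaction, normalised to the cognate motif.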
A general note: A gel shift assay detects complexes by their altered migration in electrophoresis.
As to B1, the binding signal was 0.0145 KA relative to UGCAUGU.
The same measure for B2: 0.00298 KA relative to UGCAUGU.
The same measure for B3: 0.0149 KA relative to UGCAUGU; for B4: 0.00677 KA relative to UGCAUGU; for B5: 0.002 KA relative to UGCAUGU.
Regarding B6, the binding signal was 0.0034 KA relative to UGCAUGU.
With B7 the figure was 0.00391 KA relative to UGCAUGU; with B8, 0.0226 KA relative to UGCAUGU.
With B9 the figure was 0.00706 KA relative to UGCAUGU; with B10, 0.0152 KA relative to UGCAUGU; with B11, 0.0048 KA relative to UGCAUGU.
With B12, the binding signal is 0.0109 KA relative to UGCAUGU.
Consider B13, for which the binding signal was 0.00465 KA relative to UGCAUGU.
As for B14, the binding signal was 0.0202 KA relative to UGCAUGU.
With B15 the figure was 0.00621 KA relative to UGCAUGU; with B16, 0.0408 KA relative to UGCAUGU.
The same measure for B17: 0.0106 KA relative to UGCAUGU; for B18: 0.00859 KA relative to UGCAUGU; for B19: 0.00297 KA relative to UGCAUGU.
Regarding B20, the binding signal was 0.0168 KA relative to UGCAUGU.
B21: the binding signal is 0.00398 KA relative to UGCAUGU.
The same measure for B22: 0.00552 KA relative to UGCAUGU; for B23: 0.00626 KA relative to UGCAUGU; for B24: 0.00288 KA relative to UGCAUGU.
Turning to B25, the binding signal is 0.00357 KA relative to UGCAUGU.
On to B26, for which the binding signal is 0.00169 KA relative to UGCAUGU.
With B27 the figure was 0.00193 KA relative to UGCAUGU; with B28, 0.0112 KA relative to UGCAUGU; with B29, 0.00834 KA relative to UGCAUGU.
Turning to B30, the binding signal was 0.0119 KA relative to UGCAUGU.
The same measure for B31: 0.00408 KA relative to UGCAUGU.

Source of the values: article PMC9911399, “Two distinct binding modes provide the RNA-binding protein RbFox with extraordinary sequence specificity”.
